In all, about 310,000 compounds went through this assay and about 14,000 (4.5%) showed an effect of 50% or more. The effect is printed as a negative number. The list shows a part of the results.
Each molecule was assayed against human ether-à-go-go-related gene (hERG) potassium channel (human, UniProt Q12809) (assay: primary screen, population patch clamp on CHO cells stably expressing hERG).
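Also: peak tail current of the secondary pulse compared with the same well before compound.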

human ether-à-go-go-related gene (hERG) potassium channel, sequence (Q12809 whole entry, looked up): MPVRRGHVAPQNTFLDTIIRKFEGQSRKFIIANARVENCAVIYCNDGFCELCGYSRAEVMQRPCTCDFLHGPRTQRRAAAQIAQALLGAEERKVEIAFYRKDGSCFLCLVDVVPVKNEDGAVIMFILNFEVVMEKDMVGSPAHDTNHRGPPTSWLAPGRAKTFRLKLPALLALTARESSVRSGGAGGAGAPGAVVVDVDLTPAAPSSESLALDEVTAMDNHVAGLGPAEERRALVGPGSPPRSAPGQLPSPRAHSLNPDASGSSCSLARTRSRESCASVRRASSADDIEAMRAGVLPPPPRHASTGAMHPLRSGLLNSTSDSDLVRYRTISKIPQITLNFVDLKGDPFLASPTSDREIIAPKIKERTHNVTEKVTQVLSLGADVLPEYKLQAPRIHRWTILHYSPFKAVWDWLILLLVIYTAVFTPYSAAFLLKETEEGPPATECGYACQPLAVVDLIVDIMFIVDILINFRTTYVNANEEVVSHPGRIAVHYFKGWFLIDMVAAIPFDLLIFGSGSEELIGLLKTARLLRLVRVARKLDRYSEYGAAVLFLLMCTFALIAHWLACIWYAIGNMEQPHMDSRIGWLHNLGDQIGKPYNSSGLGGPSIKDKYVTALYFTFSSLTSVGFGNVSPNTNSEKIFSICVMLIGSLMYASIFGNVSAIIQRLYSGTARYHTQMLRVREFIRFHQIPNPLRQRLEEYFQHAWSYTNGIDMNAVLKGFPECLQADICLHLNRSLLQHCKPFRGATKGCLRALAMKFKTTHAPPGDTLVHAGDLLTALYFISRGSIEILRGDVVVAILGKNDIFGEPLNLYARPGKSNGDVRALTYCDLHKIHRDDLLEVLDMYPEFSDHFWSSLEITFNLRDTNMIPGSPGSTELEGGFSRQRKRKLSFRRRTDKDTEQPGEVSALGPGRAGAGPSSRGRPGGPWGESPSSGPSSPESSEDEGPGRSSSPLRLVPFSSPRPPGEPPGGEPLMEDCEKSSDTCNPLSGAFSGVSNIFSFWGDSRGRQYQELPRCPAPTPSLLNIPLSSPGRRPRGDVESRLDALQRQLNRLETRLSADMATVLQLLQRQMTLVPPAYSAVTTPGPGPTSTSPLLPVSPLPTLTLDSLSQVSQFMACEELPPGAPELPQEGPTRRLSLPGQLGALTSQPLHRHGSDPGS

Structure (SMILES) | hERG current change (%, negative = inhibition) at 10uM [%]
CC(C)NCC(O)COCCOc1ccc(Br)cc1.Cl (centres unmarked) | -12.3
CN1CCN(/N=C/c2c(O)n(C)c(=O)n(C)c2=O)CC1 | 7.99
Cc1csc(NC(=O)CSc2nnnn2C)n1 | 9.26
Cc1ccccc1Cn1cc(C)c(=O)[nH]c1=O | -1.13
C=CCNC(=O)c1cc2c(=O)c3ccccc3oc2nc1C | -31.1
COC(=O)C1CN(C(=O)c2ccc(OC(F)F)cc2)c2ccccc2O1 (centres unmarked) | -27.5
Cc1noc(C)c1C(=O)OCC(=O)/C=C1\N(C)c2ccccc2C1(C)C | -0.0577
CC(=O)Nc1ccc(Nc2nnc(-c3ccc(O)cc3)c3ccccc23)cc1 | 10.2
COc1ccc(C(=O)N2CCCC(c3ccccc3)C2)cc1 (centres unmarked) | 7.04
CCOc1ccccc1N(CC)C(=O)Cn1ncc2c(=O)oc3ccccc3c21 | -26.1
CC(C)(C)NCC(O)COc1cccc2[nH]c(=O)[nH]c12.Cl (centres unmarked) | 7.11
CC1=NN(c2ccc(C(F)(F)F)cn2)C(=O)C1 | 12.7
CCC(=NCCCn1ccnc1)c1c(O)n(-c2ccc(OC)cc2)c(=O)[nH]c1=O | 4.28
COc1cc(C(=O)NCc2nnc(SCC(=O)Nc3nc4ccccc4s3)o2)cc(OC)c1OC | 12
O=C(NC(=S)Nc1ccccc1F)c1ccc(Br)o1 | 8.98
CC(=O)N(c1ccc(C)cc1)c1nc(C)cc(C)c1C#N | 4.48
C/C(=N\NC(=O)CC#N)c1ccc(Oc2ccccc2)cc1 | -5.66
O=C(CSc1nnc(-c2ccccc2F)o1)Nc1ccc(N2CCOCC2)cc1 | 9.55
O=C(Nc1ccccc1O)c1ccc([N+](=O)[O-])cc1 | -0.166
CC1=C(C(=O)Nc2ccccc2)C(c2ccc(N(C)C)cc2)NC(=O)N1 (centres unmarked) | 6.98
CC1=C(C(=O)N2CCCC(C(=O)c3cccc(C(F)(F)F)c3)C2)OCCO1 (centres unmarked) | 2.26
O=C(Nc1c(C(=O)N2CCOCC2)cnn1-c1ccccc1)c1ccccc1F | 14.4
CS(=O)(=O)N1CCN(C(=O)Cc2ccc(Br)cc2)CC1 | -1.44
Cc1ccc(N2CC(c3nc4ccccc4n3C)CC2=O)cc1 (centres unmarked) | -21.5
COc1cc(C)c(NC(=O)c2cc(C3CC3)nc3c2cnn3C(C)C)cc1OC | -27.8
CCOc1ccc2nc(NC(=O)CS(=O)(=O)c3ccc(C)cc3)sc2c1 | -1.81

Reference: article PMC4336329 (PLoS ONE, 2015)
